Experimental findings from paper PMC6212790 are described below.

This is one part of the list. At the low end of the ranking, values are background and their order means little.

For the assay, the target named is T1, GST-Rok-C97-191 (UniProt O34857).
T1 sequence: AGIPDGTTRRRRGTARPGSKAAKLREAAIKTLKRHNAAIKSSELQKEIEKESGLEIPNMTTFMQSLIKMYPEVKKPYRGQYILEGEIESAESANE
Nature of the assay: protein binding microarray.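 Note: rank score from −0.5 (least bound) to 0.5 (best bound).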 The following applies: Rok is a gene silencer of Bacillus subtilis; high values mean tight binding; most listed sequences are background and not binding sites; double strand, one strand shown.
ATGAATTG returned a binding signal of 0.0684 E-score.
In turn, ATTAGTTC yielded a binding signal of 0.0713 E-score.
Sequence TCGGGTAA had a binding signal of 0.0879 E-score.
The result for CGTTTGGC reads -0.0792 E-score; that for GTTTCTAA, -0.0431 E-score; that for ATACCCTA, 0.103 E-score.
Regarding GAGACCTC, the binding signal was -0.221 E-score.
Sequence CTGCCATA yielded a binding signal of -0.135 E-score.
The sequence GCAGTAGC returned a binding signal of -0.0623 E-score.
GGTCCGTA registered a binding signal of -0.112 E-score.
In turn, AAAGCTGC came in with a binding signal of 0.152 E-score.
ATGGTGAG showed a binding signal of -0.00212 E-score.
ACAGTCGG returned a binding signal of 0.0333 E-score.
The result for CCAATCTC reads 0.219 E-score.
As to ATGTCTTC, the binding signal was -0.176 E-score.
Consider CTCTGAGC, for which the binding signal is -0.262 E-score.
The result for GAAAGACC reads -0.129 E-score.
Sequence CCCGAACA yielded a binding signal of -0.192 E-score.
Sequence AAGCTAAA yielded a binding signal of 0.0289 E-score.
Take CACCAGCG: the binding signal was -0.228 E-score.
The sequence ACTATGAC registered a binding signal of 0.0601 E-score.
In turn, AAGGAATA gave a binding signal of -0.0463 E-score.
For the sequence GAGACGCC, the binding signal is -0.287 E-score.
ATATCAAT displayed a binding signal of 0.264 E-score.
For ATATAACA, the binding signal stood at 0.221 E-score.
GAACTGAC: the binding signal was -0.0807 E-score.
Sequence CAATACTG yielded a binding signal of -0.0233 E-score.
Sequence AGCCAAAC showed a binding signal of 0.155 E-score.
The value for CTGAGACA was -0.182 E-score; that for ATAGGTAC was 0.257 E-score.
CCGCAACG showed a binding signal of -0.0543 E-score.
In turn, ACAGCGTC showed a binding signal of -0.208 E-score.
The sequence CACAAACG displayed a binding signal of 0.00653 E-score.
The sequence ATCCCGCC registered a binding signal of -0.0295 E-score.
The value for AAGTAATG was 0.0881 E-score; that for AGGGGGGG was -0.315 E-score.
Regarding AGTCCCAC, the binding signal was -0.00639 E-score.
CAACCCCC had a binding signal of -0.324 E-score.
Regarding AACAGTGC, the binding signal was -0.0869 E-score.
Turning to CACTGTGG, the binding signal was -0.0766 E-score.
As for CTATCTAA, the binding signal was determined as 0.282 E-score.
On to ACGAGAGA, for which the binding signal worked out at 0.022 E-score.
In turn, AGGGCTAG had a binding signal of -0.212 E-score.
Consider ACCGCGAT, for which the binding signal is -0.0202 E-score.
ATCTAGCA registered a binding signal of 0.309 E-score.
In turn, CAGGTACG returned a binding signal of -0.0152 E-score.
The result for AACGTCAG reads -0.21 E-score; that for CTAACACA, -0.0411 E-score.
The sequence CGAAAACG had a binding signal of -0.121 E-score.
Sequence AGGCGCAG showed a binding signal of -0.195 E-score.
As for CGTTGGAG, the binding signal was -0.19 E-score.
The sequence CCGAAGCA had a binding signal of 0.0191 E-score.
The value for ATCTTTGG was -0.074 E-score.
In turn, ACATATCG returned a binding signal of 0.182 E-score.
Turning to CCTAAGAG, the binding signal is -0.054 E-score.
Consider CCATTCAC, for which the binding signal was -0.0403 E-score.
CGGTTTGA: the binding signal is -0.0671 E-score.
Regarding GCAGTTTA, the binding signal came out at 0.113 E-score.
GAGCCCTC returned a binding signal of -0.274 E-score.
AATCGGCG returned a binding signal of -0.0943 E-score.
For AGTCAACG, the binding signal is -0.129 E-score.
In turn, ACCTTTCT had a binding signal of 0.103 E-score.
For the sequence GTACGCTA, the binding signal stood at 0.138 E-score.
The value for ATCCATTG was -0.0528 E-score.
Sequence AGCGTGGG registered a binding signal of -0.118 E-score.
The result for CCAAAACG reads -0.249 E-score.
CTAGGAGC had a binding signal of 0.201 E-score.
In turn, CACCGCCG showed a binding signal of -0.124 E-score.
Consider ATAGGTAA, for which the binding signal was 0.225 E-score.
The value for AACGCGAG was -0.0251 E-score; that for CAACAAGA was -0.163 E-score; that for AAGGAACT was -0.0515 E-score.
In turn, ATTTTCCC had a binding signal of -0.00582 E-score.
AGATTCTG showed a binding signal of 0.199 E-score.
For CGAAATGC, the binding signal was -0.0626 E-score.
The sequence AATGCACC returned a binding signal of -0.124 E-score.
The sequence CAGGACTA showed a binding signal of -0.0749 E-score.
The sequence CCATGACG yielded a binding signal of -0.0758 E-score.
For CATGACAG, the binding signal is -0.0741 E-score.
ACCGCGGG: the binding signal was -0.144 E-score.
Turning to AAGTAGTA, the binding signal came out at 0.358 E-score.
For GTTAGGGA, the binding signal is -0.112 E-score.
The sequence ATTGCGCA gave a binding signal of 0.00228 E-score.
The value for AGTGGACG was -0.198 E-score.
In turn, TCTATTCA gave a binding signal of 0.0688 E-score.
As to CCGTATGA, the binding signal was -0.05 E-score.
CGTCTATC returned a binding signal of -0.0931 E-score.
On to AAGGACGG, for which the binding signal is -0.164 E-score.
For CGAGCTGA, the binding signal was -0.215 E-score.
As to ATTTGTCG, the binding signal came to 0.134 E-score.
The sequence TCCCAGCA came in with a binding signal of -0.0663 E-score.
The value for CGAGGGAC was -0.305 E-score; that for ATGGGAGC was -0.204 E-score.
For CCAAGGTA, the binding signal amounted to 0.0964 E-score.
The value for AGCTGGAC was -0.239 E-score; that for CTTTCTAC was 0.447 E-score; that for ACATCTGC was 0.135 E-score.
CACGCATG returned a binding signal of -0.16 E-score.
In turn, AAAGAAAC returned a binding signal of -0.0427 E-score.
Regarding CCCATCCC, the binding signal was -0.206 E-score.
CTAGGGGC returned a binding signal of -0.373 E-score.
The value for CCACTCGA was -0.107 E-score.
CCAGTAGG had a binding signal of 0.0649 E-score.
The value for AGCCTCTA was 0.0171 E-score; that for AGCTGCTG was -0.0925 E-score; that for GACAGATA was 0.153 E-score.
The result for CAAAATGA reads 0.0999 E-score.
Turning to AATATCAA, the binding signal stood at 0.244 E-score.
For the sequence ACTGCCGA, the binding signal is -0.178 E-score.
The sequence CCGCCCCC came in with a binding signal of -0.236 E-score.
Sequence CCTGGTCA yielded a binding signal of -0.102 E-score.
In the case of CGGTTTCA, the binding signal was -0.131 E-score.
CAACTGCG came in with a binding signal of -0.192 E-score.
Consider CACCTCGC, for which the binding signal was -0.148 E-score.
For the sequence ATCGGCAA, the binding signal was -0.182 E-score.
Consider TCGCACCA, for which the binding signal was -0.122 E-score.
On to CACAGCGA, for which the binding signal is -0.129 E-score.
CTCCTCGA had a binding signal of -0.0979 E-score.
With TAGTCATA, the binding signal came to 0.148 E-score.
Regarding CCTACAGA, the binding signal worked out at 0.064 E-score.
Sequence GTCCCTGA yielded a binding signal of -0.188 E-score.
As for TTATGGAA, the binding signal was determined as 0.0655 E-score.
The value for ACGCAGAA was -0.108 E-score; that for TCGTTAGA was 0.00302 E-score.
Take CCCTTGAC: the binding signal is -0.132 E-score.
Sequence ATGACGGA returned a binding signal of 0.0909 E-score.
Take GGATGGCC: the binding signal was -0.372 E-score.
As to ACGTGCCA, the binding signal stood at 0.00179 E-score.
In the case of CTGGCGCA, the binding signal is -0.0881 E-score.
Consider GCTCTTAC, for which the binding signal was -0.0333 E-score.
For AAGTAATC, the binding signal turned out to be 0.0184 E-score.
GATATGCA: the binding signal came to 0.136 E-score.
With AGCGTCAA, the binding signal is -0.0674 E-score.
CGGGGTGA: the binding signal was -0.0577 E-score.
Regarding TACCGGAA, the binding signal was -0.0058 E-score.
Sequence CGCAGCTC yielded a binding signal of -0.193 E-score.
For CTAGCTGA, the binding signal stood at 0.0625 E-score.
The sequence AGTCGTGC had a binding signal of 0.0618 E-score.
The result for TGGATCAA reads -0.0679 E-score.
As for GAGACACA, the binding signal was -0.125 E-score.
Turning to AAATAGGG, the binding signal is -0.0549 E-score.
The value for TAATATAA was 0.309 E-score; that for GGAAGTAC was -0.0337 E-score.
In the case of AGGTCTTA, the binding signal was -0.23 E-score.
ATCTCGCC showed a binding signal of 0.0971 E-score.
As to AAATACGT, the binding signal is 0.343 E-score.
AGCCAAAT: the binding signal was 0.0358 E-score.
Sequence ACTATTCA had a binding signal of 0.221 E-score.
The value for CTCGGTGA was -0.118 E-score.
Sequence TATCATGA had a binding signal of 0.19 E-score.
In turn, GCGGCGTA came in with a binding signal of -0.0352 E-score.
On to GGGCAAAA, for which the binding signal is 0.0699 E-score.
On to CCGGTATC, for which the binding signal was 0.181 E-score.
With AAACCGCA, the binding signal is -0.108 E-score.
The result for AAATATTC reads 0.219 E-score.
With ACGTCCGG, the binding signal is -0.0313 E-score.
As to AAGACTAA, the binding signal was determined as 0.132 E-score.
In turn, GAGCCATC gave a binding signal of -0.0365 E-score.
The result for ACTCTCGC reads -0.0559 E-score; that for TATTCTGA, -0.0202 E-score.
The result for ATCCAATG reads 0.00844 E-score; that for CGTCGCAA, -0.128 E-score.
Consider CCGCTTGA, for which the binding signal is -0.0994 E-score.
GCGGAGGA showed a binding signal of -0.229 E-score.
CCACGCAG gave a binding signal of -0.198 E-score.
Take AATACACG: the binding signal was 0.106 E-score.
Regarding ACAGGTGG, the binding signal was -0.244 E-score.
As to AGTCAGAT, the binding signal was 0.0278 E-score.
Regarding CTTCACAC, the binding signal is -0.0247 E-score.
AATCATTG displayed a binding signal of 0.143 E-score.
In the case of AAGCGTCC, the binding signal is -0.231 E-score.
On to TCCTTACA, for which the binding signal is -0.0881 E-score.
